The other results are listed elsewhere or left out. Repeats are few or missing, and single values can be far off.

For 14 molecules, cell count results are on record in the supplement of paper PMC4604168 (melanoma cell lines).
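Further: cell number obtained by counting DAPI-stained nuclei in high-throughput microscope images with image analysis software, screen run in 1,536-well plates.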

In this experiment the test system is COLO800. Kind of experiment: cell count relative to DMSO control; melanoma cells; higher = more viable cells. Particulars: library dose: low library concentration; 72 h.
Turning to `Nc1ncn([C@H]2C[C@H](O)[C@@H](CO)O2)c(=O)n1` [decitabine] + CC(C)CCN1c2nc(Nc3cc(F)c(O)c(F)c3)ncc2N(C)C(=O)C1C [BID1870] (first compound 0.1 µM, partner dose 0.2 µM), the cell count came to 150%.

Regarding `Nc1ccn([C@@H]2O[C@H](CO)[C@@H](O)C2(F)F)c(=O)n1` [gemcitabine] + CC(C)CCN1c2nc(Nc3cc(F)c(O)c(F)c3)ncc2N(C)C(=O)C1C [BID1870] (first compound 0.0004 µM, partner dose 0.2 µM), the cell count came to 97.8%.

`Nc1ncn([C@H]2C[C@H](O)[C@@H](CO)O2)c(=O)n1` [decitabine] + CC1(C)NC(=O)N(c2ccc([N+](=O)[O-])c(C(F)(F)F)c2)C1=O [nilutamide] (first compound 0.1 µM, partner dose 1 µM) returned a cell count of 66.8%.

`CC(=O)O[C@@]12CO[C@@H]1C[C@H](O)[C@@]1(C)C(=O)[C@H](O)C3=C(C)[C@@H](OC(=O)[C@H](O)[C@@H](NC(=O)OC(C)(C)C)c4ccccc4)C[C@@](O)([C@@H](OC(=O)c4ccccc4)[C@H]21)C3(C)C` [Docetaxel] + CCc1ccc(CCOc2ccc(CC3SC(=O)NC3=O)cc2)nc1 [pioglitazone] (first compound 0.0001 µM, partner dose 2 µM) had a cell count of 76.5%.

In turn, `Nc1ncn([C@H]2C[C@H](O)[C@@H](CO)O2)c(=O)n1` [decitabine] + Cc1cc(N2CCOCC2)cc2[nH]c(-c3c(NC[C@@H](O)c4cccc(Cl)c4)cc[nH]c3=O)nc12 [BMS536924] (first compound 0.1 µM, partner dose 0.2 µM) showed a cell count of 62.5%.

Turning to `Nc1ncn([C@H]2C[C@H](O)[C@@H](CO)O2)c(=O)n1` [decitabine] + O=S(=O)(c1ccccc1)N(CC(F)(F)F)c1ccc(C(O)(C(F)(F)F)C(F)(F)F)cc1 [T0901317] (first compound 0.1 µM, partner dose 1.4 µM), the cell count is 94.5%.

Consider `Nc1ncn([C@H]2C[C@H](O)[C@@H](CO)O2)c(=O)n1` [decitabine] + COc1cc(N2CCC(N3CCN(C)CC3)CC2)ccc1Nc1ncc(Cl)c(Nc2ccccc2S(=O)(=O)C(C)C)n1 [NVP-TAE684] (first compound 0.1 µM, partner dose 0.08 µM), for which the cell count came to 99.7%.

`CC(=O)c1c(C)c2cnc(Nc3ccc(N4CCNCC4)cn3)nc2n(C2CCCC2)c1=O` [palbociclib] + Oc1nc(-c2ccc(C(F)(F)F)cc2)nc2c1CSCC2 [XAV939] (first compound 0.04 µM, partner dose 2 µM) came in with a cell count of 96.7%.

Take `Nc1ccn([C@@H]2O[C@H](CO)[C@@H](O)C2(F)F)c(=O)n1` [gemcitabine] + O=c1cc(-c2cccc3c2Sc2ccccc2S3)oc(N2CCOCC2)c1 [KU55933] (first compound 0.0004 µM, partner dose 1 µM): the cell count worked out at 95.4%.

In the case of `Nc1ncn([C@H]2C[C@H](O)[C@@H](CO)O2)c(=O)n1` [decitabine] + N#Cc1c(O)c2c(-c3ccc(-c4ccccc4O)cc3)csc2[nH]c1=O [A769662] (first compound 0.1 µM, partner dose 2 µM), the cell count is 67.9%.

`Nc1nc(F)nc2c1ncn2[C@@H]1O[C@H](CO)[C@@H](O)[C@@H]1O` [fludarabine] + CN(C)S(=O)(=O)c1ccc2c(c1)/C(=C/c1cc3c([nH]1)CCCC3)C(=O)N2 [SU6656] (first compound 0.2 µM, partner dose 0.4 µM) displayed a cell count of 109%.

`Nc1ncn([C@H]2C[C@H](O)[C@@H](CO)O2)c(=O)n1` [decitabine] + CCc1ccc(CCOc2ccc(CC3SC(=O)NC3=O)cc2)nc1 [pioglitazone] (first compound 0.1 µM, partner dose 2 µM): the cell count turned out to be 71.3%.

`CC(=O)c1c(C)c2cnc(Nc3ccc(N4CCNCC4)cn3)nc2n(C2CCCC2)c1=O` [palbociclib] + CN(NC(=O)CC(=O)NN(C)C(=S)c1ccccc1)C(=S)c1ccccc1 [STA4783] (first compound 0.04 µM, partner dose 0.006 µM): the cell count is 49.3%.

Regarding `CC(=O)O[C@@]12CO[C@@H]1C[C@H](O)[C@@]1(C)C(=O)[C@H](O)C3=C(C)[C@@H](OC(=O)[C@H](O)[C@@H](NC(=O)OC(C)(C)C)c4ccccc4)C[C@@](O)([C@@H](OC(=O)c4ccccc4)[C@H]21)C3(C)C` [Docetaxel] + CS(=O)(=O)CCNCc1ccc(-c2ccc3ncnc(Nc4ccc(OCc5cccc(F)c5)c(Cl)c4)c3c2)o1 [lapatinib] (first compound 0.0001 µM, partner dose 0.8 µM), the cell count was determined as 39.6%.
